Reference: the RNAGym collection of RNA variant scans (doi:10.1073/pnas.2313332121)
Variants at the background level are over-represented here.

B1: TPR 5TU (parent)
chain: GGAUCUUCUCGAUCUAACAAAAAAGACAAAUCUGCCACAAAGCUUGAGAGCAUCUUCGGAUGCAGAGGCGGCAGCCUUCGGUGGCGCGAUAGCGCCAACGUUCUCAACUAUGACACGCAAAACGCGUGCUCCGUUGAAUGGAGUUUAUCAUG

Variants of: B1
Experiment: polymerase ribozyme fitness, log enrichment relative to wild type (log ratio); higher = more active; in vitro selection for triplet polymerase activity
Summary of the method: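 In triplicate, a single round of in vitro selection was run on each mutant library, PCR-built and transcribed, covering one subunit of a heterodimeric triplet polymerase ribozyme. Frozen incubation at −7 °C followed annealing with a biotinylated primer, partner subunit and triplets, and extended constructs were then gel-excised, streptavidin-captured and taken through RT-PCR. Fitness is the logarithm of genotype enrichment over wild-type enrichment, from inverse-variance-weighted replicate averages of Illumina-sequenced inputs and outputs. […] only genotypes with ≥10 input reads and ≥1 read per output were kept.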
For GGAUCUUCUCGAUCUAACAAAAAAGACAAACCUGCCACAUAGCUUGAGAGCAUCUUUGGAUGCAGAGGCGGCAGCCUUCGGUGGCGCGAUAGCGCCAACGUUCUCAACUAUGACACGCAAAACGCGUGCUCCGUUGAAUGGAUUUUAGCAUG, the “polymerase ribozyme fitness (log ratio)” value was at most -4.2. With GGAUCUUCUCGAUCUAACAAAAAAGACAAAACUGCCACAAAGCUUGAGAGCAUCUUCGGAUGCAGAGGCGGCAGCCUUCGGUGGGGCGAUCGCGCCAACCUUCUCAACUAUGACACGCAAAAAGCGUGCUCCAUUGAUUGGACUUUAUCAUG the “polymerase ribozyme fitness (log ratio)” value was at most -4.2. With GGAUCUUCUCGAUCUAACAAAAAAGACAAACCUGCCACUAAGCUUGAGAGCAUCUUAGGAUGCAGAGGCGGCAGCCUUCGGUGGCGCGAUAGCGUCAACGUUCUCAACUAUGCCACGCUAAACGCGUGCUCCGUUGAAUGGAGUUUAUCAUG the “polymerase ribozyme fitness (log ratio)” value was at most -4.2. For GGAUCUUCUCGAUCUAACAAAAAAGACAAACCUGCCACAAUGCUUGAGAGCAUCUUCGGAUGCAGAGGCGGCAGCCUUCUGUGGCUCGAUAGCGCCAACGUUCUUAACUAUGACCCGCCAAACGCGUGCUCCGUUGAAUAGAGAUUAUCAUG, the “polymerase ribozyme fitness (log ratio)” value was at most -4.2. For GGAUCUUCUCGAUCUAACAAAAAAGACAAAACUGCCACAAAGAUUGAGAGCAUCUUCGGAUGCAGAGGCGGCAGCCUUCGGUGGUGCGAUAGGGCCAACGUUCUCAACUAUGACACGCAAAACGCGUGCUCCGUUGAAUGGAGUUUAUCAUG, the “polymerase ribozyme fitness (log ratio)” value was at most -4.2. For GGAUCUUCUCGAUCUAACAAAAAAGACAAAACUGCCACAAAGCUUGAUAGGAUCUUCGGAUGCAGAGGCGGCAGCCUUCGGUGGCGCGAUAGCGCCAACGUUCUCAACUAUGAUACGCAAAACGCGUGCUCCGUUGAAUGGAGUUUAACAUG, the “polymerase ribozyme fitness (log ratio)” value was at most -4.2. In the case of GGAUCUUCUCGAUCUAACAAAAAAGACAAAACUGCCACAAAGCUUGAGAGCAUCUUCCGAUGCAGAGGCGGCACCCUUCGGUGGCGCGAUAGCGCCAACGUUCUCAACUAUGACACGCAAAACGCGUGCUCCGUUGAACGGAGUUAAUCAUG, the “polymerase ribozyme fitness (log ratio)” value is reported as at most -4.2. For GGAUCUUCUCGAUCUAACAAAAAAGACAAACCUGCCACAAAGCUUGAGCGCAUCUUCGGAUGCAGAGGCGGCAGCCUUCGGUGGCGCGAUAGCUCCAACGUUCUCAACUAUGACACGCAAUACGCGUGCUCCGUUGAAUGGAGUUUAUCAUG, the “polymerase ribozyme fitness (log ratio)” value was at most -4.2. With GGAUCUUCUCGAUCUAACAAAAAAGACAAAACUGCCACAAAGCUUGAGAGCAUCUUCGGAUGCAGAGGCGGCAGCCUUCGGUGGCGCGAUAGGGUAAACGUUCUCAACUAUGGCACGCAAAACGCGUGCUCCGUUGAAUGGAGUUUAUCAUG the “polymerase ribozyme fitness (log ratio)” value was at most -4.2. With GGAUCUUCUCGAUCUAACAAAAAAGACAAAACUGCCACAAAGAUUGAGAGCAUCUUGGGAUGCAGAGGCGGCAGCCUUCGGUGGCGCGAUAGCGCCAACGUUCUCAACUAUGACACGCAAAACGCGUGCUCCGUUGAAUGGAGUUUAUCAUG the “polymerase ribozyme fitness (log ratio)” value was at most -4.2. With GGAUCUUCUCGAUCUAACAAAAAAGACAAAACUGCCACAAAGCUUGAGAGCAUCUUCGGAUGCAGAGGCGGCAGCCUUCGGUGGCGCUAUAGCGCCAACGUUCUCAACUAUGACACGCAAAACGCGCGCUCCGUUGAAUGGAGUUUAUCAUG the “polymerase ribozyme fitness (log ratio)” value was at most -4.2. In the case of GGAUCUUCUCGAUCUAACAAAAAAGACAAAACUGCCACAAAGCUUGAGAGCAUCAUCGGAUGCAGAGGCGGCAGCCUUCGGUGGCGUGAUCGAGCUAACGUUCUCAACUAUGACACGCGAAACGCAUGCUCCGUUGAAUGUAGUUUAUCAUG, the “polymerase ribozyme fitness (log ratio)” value is reported as at most -4.2. For GGAUCUUCUCGAUCUAACAAAAAAGACAAACCUGCCACAAGGCUUGAGAGCAUCUUCGGAUGCAGCGCCGGCAGCCUUCGGUGGCGCGAUAGCGGCAACGUUCUCAACUAUGACACGCAAAACGCGUGCUCCGUUGAAUGGAGUUUAUCAUG, the “polymerase ribozyme fitness (log ratio)” value was at most -4.2. For GGAUCUUCUCGAUCUAACAAAAAAGACAAAACUGCCACAAAGCUUGAGAGCAUCUUCGGAUGGAGAAGCGGCAGCCUUCGGUGGCGCGGUCGUGCCAACGUUCUCAACUAUGACACGCAAAACGCGUGCUCCGUUGAAUGGAGUUUCUCAUG, the “polymerase ribozyme fitness (log ratio)” value was at most -4.2. In the case of GGAUCUUCUCGAUCUAACAAAAAAGACAAAACUGCCACAAAGCUUGAGAGCAUAUUCGGAUGCAGAGGCGGCAGCCUUCGGUGUUGCGAUAGCGCCAACGUUCUCAACUAUGACACGCAAAACGCGUGCUCCGUUGAAUGGAGUUUAUCAUG, the “polymerase ribozyme fitness (log ratio)” value is reported as -2.6. For GGAUCUUCUCGAUCUAACAAAAAAGACAAAACUGCCACAAAGCUUCCGAGCAUCUUCGGAUGCAGAGGCGGCAGCCUUCGGUGGCGCGAUAGCACCAACGUUCUCAACUAUGACACGCAAAACGCGUGCUCCGUUGAAUGGAGUGUAUCAUG, the “polymerase ribozyme fitness (log ratio)” value was at most -4.2. For GGAUCUUCUCGAUCUAACAAAAAAGACAAAACUGCCACAAAGCUUGAGAGCAUCUUCGGAUGCAGAUGCGGCAGCCUUCGGUAGAGCGAUAGCGCCAACGUUCGUAACUAUGACACGCAAAACGCGUGCUCCGUUAAAUGGAGUUUAUCAUG, the “polymerase ribozyme fitness (log ratio)” value was at most -4.2. For GGAUCUUCUCGAUCUAACAAAAAAGACAAAACUGCCACAAAGCUUGAGAGCAUCUUCAGAUGCAGAGGCGGCAGCCGUCGGUGGCGCGAUAGCGCCAACGUUCUCAACUAUGACACGCAAAACGCGUGCUCCGUUGAAUGGAGUUUAUCAUG, the “polymerase ribozyme fitness (log ratio)” value was at most -4.2. For GGAUCUUCUCGAUCUAACAAAAAAGACAAAACUGCCACAAAGCUUGAGAGCAUCUUCGGAUGCAGAGGCGGCAGCCUUCGGUGGCGGGAUAGCACUAACGUUCUCAACUAUGGCACGCAAAACGCGUGCUCCGUUGAACGGAGUUUAUCAUG, the “polymerase ribozyme fitness (log ratio)” value was at most -4.2.
